The record followed here is PubChem BioAssay AID488969 (Vanderbilt High Throughput Screening Facility, 2010).

In all, about 110,000 compounds were measured (“z-score”: median about -0.1, highest 2% from about 2 on). This is one part of the list.

The assay concerns the target Metabotropic glutamate receptor 8 (Rattus norvegicus) (UniProt P70579). Put plainly: rat mGluR8 modulators via GIRK flux, primary screen, cell-based, thallium flux, HTS (AID 488969). The settings on record: HEK293 rat mGluR8, GIRK (G protein-gated inwardly rectifying potassium channel) thallium flux, FluoZin2; at 10 µM; stronger effect = higher value; submaximal glutamate (EC20) added with thallium.
Sequence of UniProt P70579 (P70579 whole entry, looked up): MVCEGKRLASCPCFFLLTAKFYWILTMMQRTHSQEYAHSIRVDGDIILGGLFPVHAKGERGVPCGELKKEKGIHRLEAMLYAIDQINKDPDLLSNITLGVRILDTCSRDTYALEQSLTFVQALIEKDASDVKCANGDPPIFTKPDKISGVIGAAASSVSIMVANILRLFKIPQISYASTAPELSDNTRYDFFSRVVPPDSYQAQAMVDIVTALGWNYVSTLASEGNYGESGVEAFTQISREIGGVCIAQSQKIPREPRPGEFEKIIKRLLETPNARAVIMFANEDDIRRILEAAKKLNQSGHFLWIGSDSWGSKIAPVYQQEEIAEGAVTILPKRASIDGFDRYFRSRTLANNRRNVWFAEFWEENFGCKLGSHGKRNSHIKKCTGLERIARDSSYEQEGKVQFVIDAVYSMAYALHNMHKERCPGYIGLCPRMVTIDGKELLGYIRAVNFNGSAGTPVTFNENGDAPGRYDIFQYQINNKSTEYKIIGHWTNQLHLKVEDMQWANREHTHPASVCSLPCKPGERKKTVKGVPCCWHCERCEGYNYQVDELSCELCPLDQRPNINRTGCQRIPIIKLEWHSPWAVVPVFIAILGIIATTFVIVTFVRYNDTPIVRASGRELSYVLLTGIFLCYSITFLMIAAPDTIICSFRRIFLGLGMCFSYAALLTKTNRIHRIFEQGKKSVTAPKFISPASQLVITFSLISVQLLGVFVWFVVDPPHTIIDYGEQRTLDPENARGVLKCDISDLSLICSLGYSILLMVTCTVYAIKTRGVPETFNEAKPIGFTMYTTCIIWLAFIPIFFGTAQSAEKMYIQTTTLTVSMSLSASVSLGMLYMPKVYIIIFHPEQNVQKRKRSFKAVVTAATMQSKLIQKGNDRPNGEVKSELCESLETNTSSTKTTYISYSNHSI
In turn, `CCCCC(=O)OCc1cn(-c2ccc(Cl)cc2)nn1` showed a z-score of -0.38. In turn, `COCc1cc(C)nc2sc(C(=O)NC3CCCCC3)c(N)c12` returned a z-score of -0.0567. With `Cc1ccc(-c2cc(C(=O)n3cnc4ccccc43)c3ccccc3n2)cc1C` the figure was -0.856; with `Cc1cc(Nc2ccc(Cl)cc2)n(-c2cccc(Cl)c2)n1`, -0.303; with `COc1cccc(/C=C2\SC(=S)N(CC3CCCO3)C2=O)c1` (configuration not stated), 1.24. Under `C/C=C(\C)CN1CCN(c2cccc(C)c2C)CC1` stands 0.899; under `COc1ccc(-c2nn(-c3ccccc3)cc2C(=O)OCC(=O)c2ccc(C)c([N+](=O)[O-])c2)cc1`, 0.113; under `Cc1cc(C)c(S(=O)(=O)N(C2=NCCS2)S(=O)(=O)c2c(C)cc(C)cc2C)c(C)c1`, 0.00982. With `CS(=O)(=O)N(CC(=O)NCCSCc1cccc(Cl)c1)c1ccc2c(c1)OCO2` the figure was -0.389; with `O=C(CN1CCN(S(=O)(=O)c2ccc(F)cc2)CC1)Nc1ccc2c(c1)OCO2`, 0.129. Take `COc1cc(C)ccc1OCCCON1C(=O)CCC1=O`: the z-score turned out to be 0.122. With `CCCCNCCOCCOc1ccc(C)cc1[N+](=O)[O-]` the figure was 0.181; with `O=C(COC(=O)c1cc(-c2ccccc2)nc2ccccc12)Nc1ccc2c(c1)OCO2`, -0.372.

`O=C(NCC1CCCO1)C(c1cccs1)N(C(=O)c1ccc(-c2ccccc2)[nH]1)C1CCCC1` (configuration not stated) came in with a z-score of -0.0712. The molecule `Cc1c(Cl)c([N+](=O)[O-])nn1CC(=O)NC(C)C1CC2CCC1C2` (configuration not stated) came in with a z-score of -0.0812.

Regarding `COc1ccc(-c2cc(=O)c3ccccc3s2)cc1`, the z-score is 0.583. The molecule `C=CCn1c(N)cc(=O)nc1SCC(=O)Nc1cccc2ccccc12` registered a z-score of -0.25. Under `CCNC(=S)Nc1ccc(OCC)cc1` stands -0.0942; under `O=C(Cc1ccccc1)Nn1cnc2ccccc21`, 0.0614; under `COc1ccc(NC(=O)c2cccc(-n3cnnn3)c2)cc1`, 0.463. In the case of `O=C(NCc1cccs1)C1CCCN(c2nc3ccccc3o2)C1` (configuration not stated), the z-score worked out at 0.146. For the molecule `O=S(=O)(Nc1ccc2c(c1)CCC2)c1cccs1`, the z-score was -1.02. In turn, `CCCc1cc(C(=O)NCc2cccs2)no1` showed a z-score of 0.268.

The molecule `O=C(c1cc2sccc2n1Cc1ccc(F)cc1)N1CCc2ccccc21` gave a z-score of -0.13.

In turn, `Cc1cc(OCC(=O)N2CCCC2)cc(C)c1Cl` showed a z-score of -0.034.

Molecule `CCCCn1c(/N=C/c2cc(OC)ccc2O)nc2ccccc21` gave a z-score of 0.474.

On to `COc1cc(NC(=O)C23CC4CC(C2)CC(n2cnc([N+](=O)[O-])n2)(C4)C3)cc(OC)c1`, for which the z-score is -0.25. Molecule `CC(C)(C)C1CCc2onc(C(=O)NC3CCCC3)c2C1` (configuration not stated) came in with a z-score of -0.19. Under `Cc1ccc(N=Cc2c(O)n(-c3nccs3)c(=O)c3ccccc23)c(C)c1` stands -0.933; under `Cc1ccc(NC(=S)Nc2ccc(Br)cc2)cc1`, -0.17.

With `CCc1nnc(NC(=O)CSc2nc3cc4c(cc3cc2CC)OCCO4)s1`, the z-score is -0.463. With `COc1cc(S(=O)(=O)NC2CCCCC2)ccc1Cl` the figure was -0.00578; with `C[C@H](NC(=O)NCc1cccs1)C(=O)O`, 0.036.

With `O=C(CSc1nnc(CNC(=O)c2ccccc2F)o1)Nc1ccc2c(c1)OCCO2`, the z-score is -0.184.

As for `O=C1C(Cl)=C(N2CCCCC2)C(=O)C(Cl)=C1c1cnc(N2CCCCC2)s1`, the z-score was found to be 0.133.

Molecule `CCN(CC)c1ccc(/C=C(/C#N)c2nc3ccc(C)cc3[nH]2)c(OC(C)C)c1` displayed a z-score of -0.63.

`O=C(COC(=O)COc1ccccc1Cc1ccccc1)Nc1cccnc1Cl` returned a z-score of -0.941.

Molecule `CC(=C/c1ccccc1)/C=N/NC(=O)c1ccc2nc[nH]c2c1` yielded a z-score of 0.107. The molecule `COc1ccc(C(=O)NC2CCCCCC2)cc1S(=O)(=O)N1CCCc2ccccc21` came in with a z-score of -0.00531. `Cc1ccc(C(=O)N2CCOCC2)cc1S(=O)(=O)Nc1cccc(C)c1C` came in with a z-score of 0.356.

For `O=C(CN(CCc1ccccc1)C(=O)CNS(=O)(=O)c1ccccc1)NCC1CCCO1` (configuration not stated), the z-score was -0.228. Molecule `CCOC(=O)C1Cc2c([nH]c3ccccc23)C(C)N1` (configuration not stated) returned a z-score of -0.295. Molecule `CCCOc1ccc(Oc2cc(C)nc(SC)n2)nn1` registered a z-score of 0.217.

`O=c1c2ccccc2c(-c2ccccc2)nn1-c1cc(Cl)ccc1[N+](=O)[O-]`: the z-score is -0.343. With `COc1ccc(CCNC(=O)CCC(=O)Nc2nnc(C(C)C)s2)cc1OC` the figure was -0.334.

For the molecule `O=C(CSc1nnc(CN2CCOCC2)n1-c1ccc(Cl)cc1)N1CCc2ccccc21`, the z-score is -0.227.

As for `COCCNS(=O)(=O)c1ccc(F)c(OC)c1`, the z-score is 0.457. Molecule `COc1cc(NC(=O)c2ccc3c(c2)OCO3)ccc1NC(=O)c1ccco1` gave a z-score of 0.0386.

Take `Cc1c(SCCO)c(=O)[nH]c2cc3c(cc12)OCO3`: the z-score is 0.456. With `Cc1ccc2oc(C(Cl)(Cl)Cl)cc(=O)c2c1` the figure was 0.0333; with `Clc1ccc(Nc2nc3ccccc3n3nnnc23)cc1`, -0.133; with `CC1CCN(CC(=O)Nc2ccccc2C#N)CC1`, 0.0437. Consider `CN1CCN(Cc2nc3ccccc3c(=O)n2Cc2nc(-c3ccc4ccccc4c3)cs2)CC1`, for which the z-score is -2.27. The molecule `O=C(Oc1ccc(-c2cnc3ccccc3n2)cc1)c1ccc(Cl)c([N+](=O)[O-])c1` showed a z-score of -1.6. Under `Brc1ccc(CN2CCSCC2)cc1` stands -0.247. Molecule `CCCCCOC(=O)CSc1nnc(-c2ccccc2)c(=O)[nH]1` returned a z-score of -0.0773. For the molecule `Cc1cccc(-n2c(N)cc(=O)nc2SCC(=O)Nc2nnc(CC(C)C)s2)c1`, the z-score is 0.444. Under `O=C(/C=C/c1ccc([N+](=O)[O-])cc1)NCCSc1ccccc1` stands -0.281. With `CC(C)NC(=O)NC1C2CC3CC(C2)CC1C3` (configuration not stated) the figure was -0.143. With `O=C(Cn1cc(C(=O)c2cccs2)c2ccccc21)NCc1cccs1` the figure was -1.78; with `COc1cc2c(C(=O)NCCCN3CCN(c4cccc(Cl)c4)CC3)cn(C)c(=O)c2cc1OC`, 0.447; with `CC(=O)c1cccc(Nc2cc(C)nc3c(C)cc(C)cc23)c1`, -0.663. In turn, `O=C(NCc1cccs1)c1ccncc1` gave a z-score of 0.938.

`O=C(CSc1ccc(-c2nc3ccccc3[nH]2)cn1)N1CCN(C(=O)c2ccco2)CC1` showed a z-score of -1.08. On to `CCOC(=O)CSC1=C(C#N)C(c2ccccc2C)C2=C(CCCC2=O)N1` (configuration not stated), for which the z-score is -0.3. `Cc1cc(OCCN2CCOCC2)ccc1[N+](=O)[O-]` came in with a z-score of 0.113.

In turn, `Cc1ccc(S(=O)(=O)N(C)CC(=O)N2CCN(c3ccccn3)CC2)cc1` registered a z-score of -0.71. Under `CCOC(=O)C1=C(C)OC(N)=C(C#N)C1c1cc(C)sc1C` (configuration not stated) stands 0.338; under `O=C1c2ccccc2CCCC12N=NCC2c1cccc2ccccc12` (configuration not stated), -0.185. Under `COC(=O)N/N=C/c1cn(Cc2ccccc2Cl)c2ccccc12` stands -0.214; under `CN(C(=O)C12CC3CC(CC(C3)C1)C2)C1(C)CCS(=O)(=O)C1` (configuration not stated), -0.0678; under `CCOc1ccc(C(C)=O)cc1Cc1c(O)nc(N)[nH]c1=O`, 0.0977. With `O=C(CNC(=O)c1ccccc1)NCC1COc2ccccc2O1` (configuration not stated) the figure was 0.11; with `Cc1cc([N+](=O)[O-])nn1CCC(=O)NC1CCCCCC1`, -0.0418. In turn, `COc1ccc(CC(=O)NCC(=O)N/N=C/c2ccc(C)o2)cc1` showed a z-score of -0.191. The molecule `Cc1nc(Nc2ccccc2)sc1-c1ccccc1` showed a z-score of -0.247.

For `C=CCNc1nc(-c2sc(NC(=O)CC)nc2C)cs1`, the z-score was -0.995. On to `CCCCOc1cccc(-c2cc(C(=O)NNC(=S)NCC)c3ccccc3n2)c1`, for which the z-score is 0.0553. For the molecule `CCCN(CCC)CC(=O)NCC1(c2ccccc2)CCOCC1`, the z-score is -0.148.

As for `CC(=O)C(Sc1ccc2nnc(-c3ccncc3)n2n1)C(C)=O`, the z-score is 0.0188. With `CCCOC(=O)c1ccc(OCC(O)CN2C(=O)NC(C)(C)C2=O)cc1` (configuration not stated) the figure was 0.307; with `CC(SC(=S)N1CCOCC1)C(=O)O` (configuration not stated), -0.207; with `O=C(Nc1ccc(Br)cn1)c1cccc(-c2cc3ccccc3oc2=O)c1`, -0.0253. The molecule `CC1=CC(=C(C#N)c2nc3ccccc3s2)C=C(C)N1c1ccc(F)cc1` came in with a z-score of -0.153. With `Cc1nn(C2CCS(=O)(=O)C2)c(Cl)c1/C=C/C(=O)OCC(=O)c1cc(C)n(-c2ccc(F)cc2)c1C` (configuration not stated) the figure was 0.234; with `COc1ccccc1N1CCN(C(=O)CN(CCc2ccccc2)S(C)(=O)=O)CC1`, 0.0799; with `COc1cc(NS(=O)(=O)c2ccc3c(c2)oc(=O)n3C)cc(OC)c1OC`, -0.711. With `COc1ccccc1Oc1c(C)oc2c(CN3CCN(C)CC3)c(O)ccc2c1=O` the figure was -1.09; with `O=c1[nH]c(CO)nc2c1oc1ccccc12`, -0.461. `O=C(NC1CCCC1)c1nc2c(nnn2Cc2ccccc2Cl)c(=O)[nH]1` came in with a z-score of -1.3.

Take `COc1ccc(NC(=O)C(C)NS(=O)(=O)c2ccc(NC(C)=O)cc2)cc1Cl` (configuration not stated): the z-score is -0.0141.

The molecule `O=C(O)c1ccc(CSCc2ccco2)cc1` displayed a z-score of 0.0339. With `O=C(Cn1cc2c(n1)CCCCC2)N1CCc2ccccc2C1` the figure was 0.398; with `O=C(Cn1c(-c2cscn2)nc2ccccc21)Nc1ccc(Cl)cc1`, -0.942. Under `CCOP(=O)(OCC)C(Nc1cccc(C(F)(F)F)c1)c1ccc(F)cc1` (configuration not stated) stands -0.398; under `CC1CCCC(C)N1C(=O)Cn1c(SCC(=O)NCc2ccc3c(c2)OCO3)nc2ccccc21` (configuration not stated), 0.0663; under `O=C(Nc1ccn(Cc2ccccc2F)n1)c1ccc(COc2ccccc2Cl)cc1`, -0.127. As for `COc1ncnc2c1oc1nc(C(C)C)c3c(c12)CC(C)(C)OC3`, the z-score is -0.167. Molecule `COc1ccc(C)cc1NC(=S)NNC(=O)c1ccccc1Cl` yielded a z-score of 0.678. With `CC(C)=CC1C=C(C)C(C)C2C(=O)NNC(=O)C12` (configuration not stated) the figure was -0.201.

The molecule `CCOc1cc(NC(=S)NCC(C)C)c(OCC)cc1NC(=O)c1cccs1` showed a z-score of -0.0613. Under `CSC1=N/C(=C\c2ccc(F)cc2)C(=O)S1` stands -0.817; under `O=c1sc2ccccc2n1CCOc1ccccc1`, -0.0541. Regarding `O=C1c2ccccc2C(=O)N1CCCc1nc(-c2ccccn2)no1`, the z-score is -0.44. Under `CC1CCN(CCNC(=O)CN(C)S(=O)(=O)c2cccc3nsnc23)CC1` stands 0.105; under `COc1cc(-c2noc(C3CCCN(S(=O)(=O)c4cccc(Cl)c4)C3)n2)cc(OC)c1OC` (configuration not stated), -0.013. Under `COCCNC(=O)/C(C#N)=C/c1ccc(-c2ccc(S(=O)(=O)N3CCOCC3)cc2)o1` stands -0.137; under `CCc1ccc(N/C(SCc2ccccc2C)=C(/C#N)C(=O)NCc2ccco2)cc1`, -0.191. With `CCOC(=O)N1CCC(NC(=O)c2cnn3ccccc23)CC1` the figure was -0.109; with `NC(=O)c1ncc(C(F)(F)F)cc1Oc1cccc(F)c1`, -0.0977. In turn, `CCCS(=O)(=O)C(=C1Nc2ccccc2N1)S(=O)(=O)CCC` had a z-score of -0.282. In the case of `CCN(CC)CC(=O)Nc1nc(-c2ccc(Cl)cc2)cs1`, the z-score turned out to be 0.792.
